# Laboratory results reported in paper PMC12820563.
# The list shows a part of the results. The list includes weakly bound sequences.
# Target: T1, MBP-FoxP3dN (UniProt Q99JB6)
# T1 sequence: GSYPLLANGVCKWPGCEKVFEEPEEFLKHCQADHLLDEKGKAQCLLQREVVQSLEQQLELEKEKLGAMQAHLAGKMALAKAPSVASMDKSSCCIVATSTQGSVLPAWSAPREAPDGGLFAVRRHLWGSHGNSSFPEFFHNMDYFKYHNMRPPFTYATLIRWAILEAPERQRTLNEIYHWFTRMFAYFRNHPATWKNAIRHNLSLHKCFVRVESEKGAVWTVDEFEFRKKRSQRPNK
# Test: PD-seq (MBP pull-down with sequencing)
# Conditions: 20 mM Tris-HCl pH 7.5, 100 mM NaCl, 1.5 mM MgCl2, 0.4 uM protein, 0.1 uM dsDNA library, 30 min, room temperature, amylose pull-down; high values mean tight binding; double strand, one strand shown
row,Sequence,binding signal (RPM ratio (pull-down/input))
1,GATGATTGTTCTCCCAGCTGATGAATTCTTCTCTTCGAGTAAACAAATTTTCCTAATCTTTCTGTTCAAGCGCCATCTAC,0.187
2,GATGATTGTTCTCCCAGCTGATGAATTTTCAATGTCGAGTAAACAAATTTTCCTAATCTTTCTGTTCAAGCGCCATCTAC,0.335
3,GATGATTGTTCTCCCAGCTGATGAATTCAAGTGATCGAGTAAACAAATTTTCCTAATCTTTCTGTTCAAGCGCCATCTAC,0.376
4,GATGATTGTTCTCCCAGCTGATGAATTACTATCCTCGAGTAAACAAATTTTCCTAATCTTTCTGTTCAAGCGCCATCTAC,0.379
5,GATGATTGTTCTCCCAGCTGATGAATTCCACCCGTCGAGTAAACAAATTTTCCTAATCTTTCTGTTCAAGCGCCATCTAC,0.242
6,GATGATTGTTCTCCCAGCTGATGAATTTCAGTTTTCGAGTAAACAAATTTTCCTAATCTTTCTGTTCAAGCGCCATCTAC,0.522
7,GATGATTGTTCTCCCAGCTGATGAATTACAACACTCGAGTAAACAAATTTTCCTAATCTTTCTGTTCAAGCGCCATCTAC,1.72
8,GATGATTGTTCTCCCAGCTGATGAATTTAAACCCTCGAGTAAACAAATTTTCCTAATCTTTCTGTTCAAGCGCCATCTAC,0.268
9,GATGATTGTTCTCCCAGCTGATGAATTTTGTGGATCGAGTAAACAAATTTTCCTAATCTTTCTGTTCAAGCGCCATCTAC,2.73
10,GATGATTGTTCTCCCAGCTGATGAATTATATATGTCGAGTAAACAAATTTTCCTAATCTTTCTGTTCAAGCGCCATCTAC,1.27
11,GATGATTGTTCTCCCAGCTGATGAATTGAATTGATCGAGTAAACAAATTTTCCTAATCTTTCTGTTCAAGCGCCATCTAC,0.917
12,GATGATTGTTCTCCCAGCTGATGAATTGCGATAATCGAGTAAACAAATTTTCCTAATCTTTCTGTTCAAGCGCCATCTAC,0.749
13,GATGATTGTTCTCCCAGCTGATGAATTACGGAAATCGAGTAAACAAATTTTCCTAATCTTTCTGTTCAAGCGCCATCTAC,0.328
14,GATGATTGTTCTCCCAGCTGATGAATTACCGCACTCGAGTAAACAAATTTTCCTAATCTTTCTGTTCAAGCGCCATCTAC,0.569
15,GATGATTGTTCTCCCAGCTGATGAATTGACGATTTCGAGTAAACAAATTTTCCTAATCTTTCTGTTCAAGCGCCATCTAC,0.415
16,GATGATTGTTCTCCCAGCTGATGAATTTACCCGCTCGAGTAAACAAATTTTCCTAATCTTTCTGTTCAAGCGCCATCTAC,0.306
17,GATGATTGTTCTCCCAGCTGATGAATTTCGAGGATCGAGTAAACAAATTTTCCTAATCTTTCTGTTCAAGCGCCATCTAC,0.273
18,GATGATTGTTCTCCCAGCTGATGAATTGAGGACGTCGAGTAAACAAATTTTCCTAATCTTTCTGTTCAAGCGCCATCTAC,0.248
